Measurements taken from publication PMC6602471.
This is one part of the list. At the low end of the ranking the order means little.

These sequences were tested against T1, ETS1 (UniProt P14921) (assay: custom PBM). Conditions: custom protein-binding microarray; buffer, salt, pH and temperature not stated; high values mean tight binding; double strand, one strand shown.
T1 sequence: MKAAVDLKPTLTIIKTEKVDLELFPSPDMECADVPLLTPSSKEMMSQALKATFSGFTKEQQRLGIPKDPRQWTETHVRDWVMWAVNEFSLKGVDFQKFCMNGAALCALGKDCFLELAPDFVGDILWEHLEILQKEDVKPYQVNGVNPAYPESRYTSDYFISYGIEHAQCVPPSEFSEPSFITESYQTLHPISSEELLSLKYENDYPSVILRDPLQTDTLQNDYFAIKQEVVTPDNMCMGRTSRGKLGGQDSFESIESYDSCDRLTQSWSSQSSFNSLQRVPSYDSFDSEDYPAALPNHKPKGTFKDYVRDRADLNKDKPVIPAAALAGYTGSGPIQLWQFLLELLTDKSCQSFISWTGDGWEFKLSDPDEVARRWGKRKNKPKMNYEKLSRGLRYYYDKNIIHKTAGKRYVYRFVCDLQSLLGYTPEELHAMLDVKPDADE

| Sequence | binding signal (log fluorescence intensity) |
| --- | --- |
| GCTGCTGCGGTGCATACCCCACCGGATCTGACCCCGGTCTTGATTCGCTTGACGCTGCTG | 8.28 |
| GGAAAAAGGCCCAGTGTAACACCGGAAGTGGGCTTAGTCTTGATTCGCTTGACGCTGCTG | 12 |
| CGGCAGTGTCGTAAACGTCGGATATCCGGTTCTTCTGTCTTGATTCGCTTGACGCTGCTG | 11.7 |
| TACTGACGTATATATGCGAATGCACATGAATAGACCGTCTTGATTCGCTTGACGCTGCTG | 8.24 |
| TAAAGGGAAGACGGTTGTGGTAGTTCCGGGTATTAAGTCTTGATTCGCTTGACGCTGCTG | 8.52 |
| CTGGGACTCGACCCAACTCTGCCACGTGGGTCGTTTGTCTTGATTCGCTTGACGCTGCTG | 8.18 |
| TACTGACTTATATATGCGAATGCACATGAACAGACCGTCTTGATTCGCTTGACGCTGCTG | 8.02 |
| GATTAATTTCTGCCCTTATTCGCACGTGTCATAACAGTCTTGATTCGCTTGACGCTGCTG | 8.12 |
| GATTAATTTCTGCCCTTATTCGCACGTGCGATAACAGTCTTGATTCGCTTGACGCTGCTG | 8.09 |
| TACTGACTTATATATGCGAACGCACATGAATAGACCGTCTTGATTCGCTTGACGCTGCTG | 8.19 |
| CTGGGACTTGACCCAACTCTGACACGTGGGTCGTTTGTCTTGATTCGCTTGACGCTGCTG | 8.26 |
| CAGCAGAGGACTTCTTCCCTGAAGCAATTGATAACCGTCTTGATTCGCTTGACGCTGCTG | 8.33 |
| TAGAGGGAAGACGGTTGTGGTAGTTCCGGGTATTAAGTCTTGATTCGCTTGACGCTGCTG | 8.62 |
| TGTCGGGTAAGGGAATGTGGATCACGTGAATGAAAAGTCTTGATTCGCTTGACGCTGCTG | 8.13 |
| CTGGGACTTGCCCCAACTCTGCCACGTGGGTCGTTTGTCTTGATTCGCTTGACGCTGCTG | 8.29 |
| GTGTATAGGATCCCTTCCAACACACGTGTTAAAATGGTCTTGATTCGCTTGACGCTGCTG | 8.2 |
| GTGTGTAGGATCCCATCCAACACACGTGTTAAAATGGTCTTGATTCGCTTGACGCTGCTG | 8.23 |
| CTGCATAGGACTTCTTCCCTGAAGCAATTGATAACCGTCTTGATTCGCTTGACGCTGCTG | 8.29 |
| TACTGACTTTTATATGCGAATGCACATGAATAGACCGTCTTGATTCGCTTGACGCTGCTG | 8.18 |
| GCTGCTGCGGTGCATACCCCACCGGATGTGACGCCGGTCTTGATTCGCTTGACGCTGCTG | 10 |
| TACTGACTTATATATGCGAATGCACAGGAATAGACCGTCTTGATTCGCTTGACGCTGCTG | 8.3 |

| Sequence | binding signal (log fluorescence intensity) |
| --- | --- |
| CACAATTTTTACAGTAATGTAGCACGGGTAACTCCTGTCTTGATTCGCTTGACGCTGCTG | 8.37 |
| GGAAAAAGGCCCCGGGTAACACCGGAAGTGGGCTTAGTCTTGATTCGCTTGACGCTGCTG | 12.6 |
| TCCGGCTACCTGCTCCACCCACTTCAGGCCTTGTAGGTCTTGATTCGCTTGACGCTGCTG | 8.27 |
| CAGCATAGGACTACTTCCCTGAAGCAATTGATAACCGTCTTGATTCGCTTGACGCTGCTG | 8.63 |
| GTGTATAGGATCCCATCCCACACACGTGTTAAAATGGTCTTGATTCGCTTGACGCTGCTG | 8.26 |
| TACTGACTTATATATGCGAATGCACATGAATACACCGTCTTGATTCGCTTGACGCTGCTG | 8.21 |
| CAGCATAGGACTTCTTCCCTGAAGCAATTGATAACAGTCTTGATTCGCTTGACGCTGCTG | 8.25 |
| GTGTATACGATCCCATCCAACACACGTGTTAAAATGGTCTTGATTCGCTTGACGCTGCTG | 7.71 |
| CTGGAACTTGACCCAACTCTGCCACGTGGGTCGTTTGTCTTGATTCGCTTGACGCTGCTG | 8.31 |
| CTGGGACTTGACCCAACTCTGCCACGTAGGTCGTTTGTCTTGATTCGCTTGACGCTGCTG | 8.41 |
| GCTGCTGCGCTGCATACCCCACCGGATGTGACCCCGGTCTTGATTCGCTTGACGCTGCTG | 10.1 |
| GGAAAAAGGCCCAGAGTAACACCGGAAGTGGGCTTAGTCTTGATTCGCTTGACGCTGCTG | 12 |
| GCTGGTGCGGTGCATACCCCACCGGATGTGACCCCGGTCTTGATTCGCTTGACGCTGCTG | 10.2 |
| CTGAGACTTGACCCAACTCTGCCACGTGGGTCGTTTGTCTTGATTCGCTTGACGCTGCTG | 8.15 |
| TACTGACTTATATATGCGAATGTACATGAATAGACCGTCTTGATTCGCTTGACGCTGCTG | 8.31 |
| GTGTATAGGATCCCATCCAACACACGTGTTAAACTGGTCTTGATTCGCTTGACGCTGCTG | 8.21 |
| TGTCGGGTAAGGGAATGTAGATCACGTGAACGAAAAGTCTTGATTCGCTTGACGCTGCTG | 8.23 |
| GATTAATTTCTGCCCTTATTCGCACCTGCCATAACAGTCTTGATTCGCTTGACGCTGCTG | 8.12 |
| CCCGGCTACCAGCTCCACCCACTTCAGGCCTTGTAGGTCTTGATTCGCTTGACGCTGCTG | 8.04 |
| TGTCGGGTAAGGGAATGTAGATCACGTGAATGAATAGTCTTGATTCGCTTGACGCTGCTG | 8.24 |
